In all, about 340,000 compounds went through this assay and about 12,000 (3.5%) were called active. This list was built around the results that the source calls inconclusive (neither active nor inactive); the mix of calls is not that of the screen. The call rests on the fitted dose curve; in most records, active means well fitted inhibition curve with a large enough effect; inconclusive means small, poorly fitted or top-dose-only effect, or another doubt; inactive means no such curve, though single readings can be large or run the other way. Potencies of inconclusive entries are left out as doubtful fits.
assay: qHTS Assay for Inhibitors of Hepatitis C Virus (HCV); conditions: Huh7.5.1 HCVcc-Cre (HCVcc is cell-culture hepatitis C virus) infection, luciferase reporter, 44 h; series mostly up to 41.8 µM
Summary of the method: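 Infectious HCV cell culture screen: compound-treated cells (1,000/well, pre-plated 4 h) are infected with HCVcc-Cre at roughly 0.5 moi and grown 44 h. Infection is quantified by luciferase signal after 15 min substrate incubation at room temperature.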
Potency means the concentration at half of the fitted maximal effect; tags describe the fitted curve by direction and shape.

With `CCc1ccccc1N1C(=O)c2cccc3c(N4CCOCC4)c([N+](=O)[O-])cc(c23)C1=O` as the compound, how does the Potency read?
Its Potency is inconclusive [inhibitor, partial curve].

With `COCCNC(=O)CN(C(=O)Cn1nnc2ccccc21)c1ccc(F)c(Cl)c1` as the compound, how does the Potency read?
Its Potency is “inactive”.

With `CCC(=O)NC(=S)Nc1ccc(NC(=O)c2ccco2)c(OC)c1` as the compound, how does the Potency read?
The Potency was “inactive”.

For `CCCCCCOc1ccc(CN2CCN(CCO)CC2)cc1`, which Potency is on record?
Its Potency is active: 10 µM.

Which Potency does the source give for `CC(=O)Nc1ccc(NC(=O)c2ccccc2S(=O)(=O)c2ccccc2[N+](=O)[O-])cc1` here?
Its Potency is inconclusive [inhibitor, single point].

For `CN(Cc1ccccc1)C(=O)c1oc(=O)c2ccccc2c1-c1ccccc1`, which Potency is on record?
The Potency was “inactive”.

For `OCC1OC(c2ccccc2)OC2COC(c3ccccc3)OC12` (stereo not drawn), which Potency is on record?
Its Potency is “inactive”.

Which Potency does the source give for `O=C(Nc1cc(-c2ccccc2)[nH]n1)c1ccc(Cl)cc1` here?
Its Potency is inconclusive [inhibitor, full curve, poor fit].

For `O=C(CCN1CCCCC1)Nc1cccc(Cl)c1`, which Potency is on record?
Its Potency is “inactive”.

Which Potency does the source give for `CC1CCCC(C)N1CCCNC(=O)c1ccc2c(c1)NC(=O)c1ccccc1S2` (stereo not drawn) here?
The Potency was inconclusive [inhibitor, single point].

For `COc1ccccc1CNC(=O)CCN1C(=O)c2ccccc2C1=O`, which Potency is on record?
The Potency was inconclusive [inhibitor, single point].

Which Potency does the source give for `CC(=O)N1CCN(Cc2nc3cc(NC(=O)c4ccccc4Cl)ccc3n2C)CC1` here?
Its Potency is “inactive”.

With `O=C1CSC(c2ccccn2)N1c1ccc(Cl)c(Cl)c1` (stereo not drawn) as the compound, how does the Potency read?
Its Potency is inconclusive [inhibitor, single point].

With `O=C(C1CCN(c2nc3ccc(Br)cc3s2)CC1)N1CCC2(CC1)OCCO2` as the compound, how does the Potency read?
Its Potency is active: 3.16 µM.

With `COc1ccc(N2CCN(CCCn3c(=S)[nH]c4ccccc4c3=O)CC2)cc1` as the compound, how does the Potency read?
The Potency was inconclusive [inhibitor, single point].

Which Potency does the source give for `CC(=O)N1CCN(C(=O)COC(=O)/C=C/c2ccccc2[N+](=O)[O-])CC1` here?
Its Potency is “inactive”.

For `COc1ccc(C(=O)NC(=S)Nc2cc3oc4ccccc4c3cc2OC)cc1`, which Potency is on record?
The Potency was “inactive”.

With `CC(=O)CSc1nc2c(c(=O)[nH]c(=O)n2C)n1Cc1cccc(Br)c1` as the compound, how does the Potency read?
The Potency was active: 12.6 µM.

With `COc1ccc(S(=O)(=O)N2CCCC2CNC(=O)C(=O)NCc2ccccc2Cl)cc1` (stereo not drawn) as the compound, how does the Potency read?
Its Potency is inconclusive [inhibitor, partial curve].

Which Potency does the source give for `COc1ccc(CCNC(=O)C(=O)NCc2cccs2)cc1OC` here?
The Potency was inconclusive [inhibitor, single point].

Which Potency does the source give for `O=C(/C=C/Nc1ccc(S(=O)(=O)Nc2ncccn2)cc1)c1ccc2ccccc2c1` here?
Its Potency is inconclusive [inhibitor, single point].

Which Potency does the source give for `COc1ccc(/C=C/C(=O)Nc2nc(N)n(-c3ccccc3)n2)cc1` here?
The Potency was “inactive”.

For `COc1ccc(S(=O)(=O)N(CC(=O)NCc2ccncc2)c2cc(C)cc(C)c2)cc1OC`, which Potency is on record?
The Potency was “inactive”.

Which Potency does the source give for `CC1=NN(c2ccc([N+](=O)[O-])cc2)C(=O)/C1=C\N(C)C` here?
Its Potency is “inactive”.

For `Cn1c(N)c(C(=O)COC(=O)c2ccccc2NCc2ccco2)c(=O)n(C)c1=O`, which Potency is on record?
Its Potency is inconclusive [inhibitor, partial curve].

With `Cc1c(C)c2c(OCC(=O)Nc3ccc(CCO)cc3)cc3c(c2oc1=O)CCC(C)(C)O3` as the compound, how does the Potency read?
The Potency was inconclusive [inhibitor, partial curve, poor fit].

With `COc1cccc(NC(=O)C(=O)NCCC2CCCCN2S(=O)(=O)c2ccccc2)c1` (stereo not drawn) as the compound, how does the Potency read?
The Potency was active: 3.98 µM.

Which Potency does the source give for `Cc1ccc(NC(=O)NC(=S)NC(=O)c2ccccc2)cc1` here?
The Potency was “inactive”.

With `c1ccc2cc(CC3=NCCN3)ccc2c1` as the compound, how does the Potency read?
The Potency was “inactive”.

With `Brc1ccc2ncc3ccccc3c2c1` as the compound, how does the Potency read?
Its Potency is inconclusive [inhibitor, partial curve].

With `CC(=O)N1CCN(c2ccc([N+](=O)[O-])c(NCC3CCCO3)c2)CC1` (stereo not drawn) as the compound, how does the Potency read?
Its Potency is inconclusive [inhibitor, single point].

With `CCCNc1c(F)c(F)c2c(C)c3ccccc3nc2c1F` as the compound, how does the Potency read?
The Potency was inconclusive [inhibitor, single point].

Which Potency does the source give for `Cc1nn(CC(=O)NC(C)CCc2ccccc2)c(=O)c2nn(-c3ccccc3)c(C)c12` (stereo not drawn) here?
Its Potency is inconclusive [inhibitor, single point].

For `COc1ccc([N+](=O)[O-])cc1NC(=O)CSc1ccccc1`, which Potency is on record?
Its Potency is inconclusive [inhibitor, single point].

For `O=c1cc(-c2ccc(C3CCCCC3)cc2)[nH][nH]1`, which Potency is on record?
The Potency was “inactive”.

For `O=C(CSc1ccccc1C(=O)NCCCN1CCCC1=O)NCc1ccco1`, which Potency is on record?
Its Potency is inconclusive [inhibitor, single point].

Which Potency does the source give for `COc1cccc(NC(=O)NCc2ccc(F)cc2)c1` here?
Its Potency is inconclusive [inhibitor, single point].

Which Potency does the source give for `CCCn1c(Cc2ccccc2)nnc1SC(C)C(=O)NC1CC1` (stereo not drawn) here?
The Potency was “inactive”.

With `O=C(Nc1ccccc1)c1cccc(N2CCCC2=O)c1` as the compound, how does the Potency read?
Its Potency is “inactive”.

For `COc1ccc(NC(=O)Nc2ccc3c(c2)C(=O)N([C@@H](C)CO)C[C@@H](C)[C@@H](CN(C)CC2CCCCC2)O3)cc1`, which Potency is on record?
The Potency was inconclusive [inhibitor, single point].

For `Cc1sc2ncnc(N3CCC(C(=O)NNC(=O)COc4cccc(C(F)(F)F)c4)CC3)c2c1C`, which Potency is on record?
Its Potency is “inactive”.

With `COc1ccccc1CNC(=O)COC(=O)c1ccc([N+](=O)[O-])o1` as the compound, how does the Potency read?
Its Potency is inconclusive [inhibitor, single point].

With `Clc1ccc2nc(-c3ccc(Cl)nc3)[nH]c2c1` as the compound, how does the Potency read?
The Potency was inconclusive [inhibitor, partial curve].

For `CC(C)N1CCN(Cc2cnc(N3CCCC3)s2)CC1CCO` (stereo not drawn), which Potency is on record?
Its Potency is “inactive”.

For `COc1ccc(S(=O)(=O)Oc2ccc3cccc(N)c3c2)cc1`, which Potency is on record?
The Potency was inconclusive [inhibitor, partial curve, poor fit].

Which Potency does the source give for `CCN(Cc1ccccc1)C(=O)c1oc2ccc(S(=O)(=O)N3CCOCC3)cc2c1C` here?
Its Potency is inconclusive [inhibitor, single point].

For `CCOC(=O)C1=C(N)OC(C)=C(C#N)C1c1ccco1` (stereo not drawn), which Potency is on record?
Its Potency is “inactive”.

Which Potency does the source give for `Cc1ccc(NC(=O)CCS(=O)(=O)c2cccc3nonc23)cc1` here?
Its Potency is “inactive”.

— PubChem BioAssay AID651820 (National Center for Advancing Translational Sciences (NCATS), 2012)
